# From PubChem BioAssay (NCATS)
# Inconclusive results, whose numbers are uncertain, are shown with a selection of clear calls. For some assays here: Potencies of inconclusive entries are doubtful fits and often do not repeat. The source made the active and inactive calls. The call rests on the fitted dose curve; in most records, active means well fitted curve in the direction sought with a large enough effect; inconclusive means small, poorly fitted or top-dose-only effect, or another doubt; inactive means no such curve, though single readings can be large; an effect the other way counts as inactive or inconclusive. Where a SMILES comes first, the peptide text is derived from it. The star is where a group is joined. Cbz = O=C(OCc1ccccc1)*
# Assays:
# [1] = qHTS to identify inhibitors of the type 1 interferon - major histocompatibility complex class I in skeletal muscle: primary screen against the NCATS Mechanism Interrogation Plate v5.0 (MIPE) Libary (AID 1347411); conditions: iHSKM cells + IFN-b, HiBiT-tagged MHC-I luminescence, 24 h; series mostly up to 45.8 µM; further: nearly all actives have a fitted effect of over 65% in size
# How it was run: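 IFN-beta-driven (4 ng/ml) HLA-B-HiBit expression in CRISPR-tagged C25cl48 myoblasts; compounds 11-pt, 1:3, max 46 uM, 24 hr exposure; lytic NanoLuc complementation luminescence.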
# [2] = qHTS of pediatric cancer cell lines to identify multiple opportunities for drug repurposing: Primary screen for TC32 cells (AID 1347089); further: nearly all actives have a fitted effect of over 60% in size
# How it was run: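 A viability screen of TC32 cells was run over 48 h, with primary MIPE doses spanning 0.78 nM–46 µM and NPC doses 0.59 nM–46 µM. ATP luminescence (CellTiter-Glo) served as the read-out.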
# [3] = qHTS of pediatric cancer cell lines to identify multiple opportunities for drug repurposing: Primary screen for Rh30 cells (AID 1347107); further: nearly all actives have a fitted effect of over 75% in size
# How it was run: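 Cells (500-1,000/well) rested 5 h, then received compounds for 48 h; metabolically active cells were measured by CellTiter-Glo luminescence. Final concentrations spanned up to 46 µM (MIPE, 11-point) or 0.59 nM-46 µM (NPC, 8-point) in primary screens, 11-point in follow-ups.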
# [4] = Quantitative High-Throughput drug screen in 47 multiple myeloma cell lines against the NCATS MIPE library collection: Karpas417_ECACC cell viability assay (AID 1918961); conditions: Karpas417 myeloma viability, CellTiter-Glo ATP luminescence, 48 h; viability (% of DMSO): at 45.8 µM (top of the series)
# How it was run: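 Inhibition of cell viability is measured here. Each line was plated at 500 cells per well, treated with MIPE 4.0 drugs, kept 48 hours at 37C, then assayed for ATP content by CellTiter-Glo luminescence.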
# [5] = Quantitative High-Throughput drug screen in 47 multiple myeloma cell lines against the NCATS MIPE library collection: KHM11_PLB cell viability assay (AID 1918962); conditions: KHM11 myeloma cell viability, CellTiter-Glo ATP luminescence, 48 h; series mostly up to 45.8 µM; further: nearly all actives have a fitted effect of over 35% in size
# How it was run: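 Approved and investigational drugs from MIPE 4.0 were added by pin tool to 500 cells per well. After 48 hours at 37C, ATP-based CellTiter-Glo luminescence indicated remaining viability.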
# [6] = Quantitative High-Throughput drug screen in 47 multiple myeloma cell lines against the NCATS MIPE library collection: Karpas25_ECACC cell viability assay (AID 1918968; further: nearly all actives have a fitted effect of over 35% in size); conditions: Karpas25 myeloma viability, CellTiter-Glo ATP, 48 h; viability (% of control): at 45.8 µM (top of the series)
# How it was run: (§1)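 Steps: seed 500 cells per well; pin-transfer MIPE 4.0 library; incubate 48 h at 37C, 5% CO2, humidified; add CellTiter-Glo, 5 min room temperature; read luminescence.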
# [7] = Quantitative High-Throughput drug screen in 47 multiple myeloma cell lines against the NCATS MIPE library collection: KMS12BM_JCRB cell viability assay (AID 1918971); further: nearly all actives have a fitted effect of over 35% in size
# How it was run: (§2)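 We plated 500 myeloma cells per well, pinned in MIPE 4.0 compounds, and incubated for 48 hours at 37C. ATP was then quantified with CellTiter-Glo, with DMSO and media-only wells defining 100% and 0%.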
# [8] = Quantitative High-Throughput drug screen in 47 multiple myeloma cell lines against the NCATS MIPE library collection: KMS20_JCRB cell viability assay (AID 1918973); conditions: CellTiter-Glo ATP, 48 h; viability (% of DMSO): at 45.8 µM (top of the series); further: nearly all actives have a fitted effect of over 45% in size
# How it was run: as §1
# [9] = Quantitative High-Throughput drug screen in 47 multiple myeloma cell lines against the NCATS MIPE library collection: KMS26_JCRB cell viability assay (AID 1918975); further: nearly all actives have a fitted effect of over 45% in size
# How it was run: as §2
# [10] = Quantitative High-Throughput drug screen in 47 multiple myeloma cell lines against the NCATS MIPE library collection: MMM1_PLB cell viability assay (AID 1918976); further: nearly all actives have a fitted effect of over 35% in size
# How it was run: (§3)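 ATP-based luminescence (CellTiter-Glo, 5 min RT incubation) quantified surviving cells following two days' treatment with MIPE 4.0 agents at 37 °C, 5% CO2.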
# [11] = Quantitative High-Throughput drug screen in 47 multiple myeloma cell lines against the NCATS MIPE library collection: LP1_DSMZ cell viability assay (AID 1918982); further: nearly all actives have a fitted effect of over 35% in size
# How it was run: as §3
# [12] = Quantitative High-Throughput drug screen in 47 multiple myeloma cell lines against the NCATS MIPE library collection: L363_DSMZ cell viability assay (AID 1918984); conditions: L363 myeloma viability, CellTiter-Glo ATP luminescence, 48 h; viability (% of control): at 45.8 µM (top of the series); further: nearly all actives have a fitted effect of over 40% in size
# How it was run: as §3
# [13] = Quantitative High-Throughput drug screen in 47 multiple myeloma cell lines against the NCATS MIPE library collection: SKMM1_PLB cell viability assay (AID 1919863); conditions: SKMM1 myeloma viability, CellTiter-Glo ATP, 48 h; viability: active compounds read low; further: nearly all actives have a fitted effect of over 35% in size
# How it was run: as §3
# [14] = Quantitative High-Throughput drug screen in 47 multiple myeloma cell lines against the NCATS MIPE library collection: VP6_DJ cell viability assay (AID 1919867); further: nearly all actives have a fitted effect of over 40% in size
# How it was run: as §3
# [15] = biological target: Calcium and integrin-binding protein 1 (Homo sapiens) (UniProt Q99828); test: Primary qHTS for Identification of Calcium Integrin Binding Protein 1 (CIB1) Competitor (AID 1508620)
# UniProt Q99828, sequence (Q99828 whole entry, looked up): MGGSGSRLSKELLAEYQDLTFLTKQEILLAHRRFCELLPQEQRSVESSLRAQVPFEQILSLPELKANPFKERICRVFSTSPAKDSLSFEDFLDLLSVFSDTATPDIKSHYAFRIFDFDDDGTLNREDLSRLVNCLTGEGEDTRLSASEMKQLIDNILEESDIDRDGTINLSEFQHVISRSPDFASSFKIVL
# How it was run: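 CIB1-GST (1 uM final) and compound incubated 15 min at room temperature before adding FITC-alphaIIb peptide tracer (100 nM final). Competition for binding read by fluorescence polarization (ex 480, em 540) after another 15 min at room temperature.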
# DIV30 = test: qHTS profiling for inhibitors of Plasmodium falciparum proliferation (AID 504749); further: nearly all actives have a fitted effect of over 60% in size; conditions: P. falciparum in erythrocytes, SYBR Green DNA, 72 h; series mostly up to 28.7 µM
# How it was run: (§4)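 In a 72 h erythrocytic culture (37 C, humidified, 5% CO2) at 2.5% hematocrit and 0.3% starting parasitemia, compounds were tested; SYBR Green I in detergent lysis buffer stained parasite DNA overnight.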
# [16] = biological target: Luciferin 4-monooxygenase (Photinus pyralis) (UniProt P08659); test: Biochemical firefly luciferase enzyme assay for NPC (AID 624030); further: nearly all actives have a fitted effect of over 70% in size
# UniProt P08659, sequence (P08659 whole entry, looked up): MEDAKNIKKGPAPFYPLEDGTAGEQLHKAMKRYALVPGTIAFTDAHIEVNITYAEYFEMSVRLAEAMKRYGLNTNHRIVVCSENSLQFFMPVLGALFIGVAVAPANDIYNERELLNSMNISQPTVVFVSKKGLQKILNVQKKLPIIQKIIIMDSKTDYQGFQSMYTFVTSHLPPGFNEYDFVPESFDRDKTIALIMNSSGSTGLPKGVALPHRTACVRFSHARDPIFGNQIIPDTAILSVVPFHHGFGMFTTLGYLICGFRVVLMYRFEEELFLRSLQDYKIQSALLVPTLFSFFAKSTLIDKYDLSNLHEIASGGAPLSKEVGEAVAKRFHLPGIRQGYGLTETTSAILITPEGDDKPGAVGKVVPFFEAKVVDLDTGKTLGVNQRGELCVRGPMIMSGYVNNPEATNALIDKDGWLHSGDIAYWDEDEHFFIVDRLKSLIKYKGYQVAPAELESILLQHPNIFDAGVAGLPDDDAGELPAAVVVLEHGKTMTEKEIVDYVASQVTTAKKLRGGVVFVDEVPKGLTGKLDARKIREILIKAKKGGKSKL
# How it was run: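 Direct inhibition of firefly luciferase enzyme (10 nM final, 50 mM Tris Acetate) assessed by luminescence within 5 minutes. Percent activity scaled between DMSO and PTC124 positive control, with concentration-effect curves classified by fit quality and response.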
# DIV14 = test: qHTS profiling for inhibitors of Plasmodium falciparum proliferation (AID 504749); further: nearly all actives have a fitted effect of over 60% in size; conditions: P. falciparum in erythrocytes, SYBR Green DNA, 72 h; series mostly up to 28.7 µM
# How it was run: as §4
# CP268 = test: as above; conditions: P. falciparum in erythrocytes, SYBR Green DNA, 72 h; series mostly up to 28.7 µM
# How it was run: as §4
# PC26 = test: as above; conditions: P. falciparum in erythrocytes, SYBR Green DNA, 72 h; series mostly up to 28.7 µM
# How it was run: as §4
# Potency means the concentration at half of the fitted maximal effect; tags describe the fitted curve by direction and shape.
smiles,measurement,setting,value
C1=C/COCc2cc(ccc2OCCN2CCCC2)Nc2nccc(n2)-c2cccc(c2)COC/1,Potency,[1],active: 2.34 µM
Nc1nc(N)c2nc(-c3cccc(O)c3)c(-c3cccc(O)c3)nc2n1,Potency,[2],active: 18.6 µM
same,Potency,[3],"inconclusive: 16.6 µM [cytotoxic, partial curve]"
same,Potency,[4],active: 1.32 µM
same,Potency,[5],active: 3.32 µM
same,Potency,[6],active: 4.69 µM
same,Potency,[7],"inconclusive: 29.6 µM [cytotoxic, single point]"
same,Potency,[8],active: 7.43 µM
same,Potency,[9],"inconclusive: 29.6 µM [cytotoxic, single point]"
same,Potency,[10],active: 20.9 µM
same,Potency,[11],active: 23.5 µM
same,Potency,[12],active: 3.72 µM
same,Potency,[13],"inconclusive: 26.4 µM [cytotoxic, partial curve, poor fit]"
same,Potency,[14],active: 3.32 µM
C=C(C)C(=O)OC1CC2(C)OC(=CC2=O)C(=C)CC2OC(=O)C(COC)C12 (configuration not stated),Potency,[15],"inconclusive: 28.2 µM [inhibitor, full curve, poor fit]"
CCS(=O)(=O)c1cccc(-c2cc(C(=O)NC3CCN(C)CC3)c(C)c3[nH]c4ncc(C)cc4c23)c1,Potency,[2],active: 0.415 µM
same,Potency,[3],"inconclusive: 1.48 µM [cytotoxic, full curve]"
same,Potency,[1],active: 1.86 µM
same,Potency,[4],"inconclusive: 1.32 µM [cytotoxic, full curve]"
same,Potency,[8],active: 1.32 µM
same,Potency,[11],active: 7.43 µM
same,Potency,[14],active: 0.935 µM
C[C@H](N)[C@H](O)c1cccc(O)c1,Potency,DIV30,inactive
CC(C)C[C@@H](C=O)NC(=O)[C@H](CC(C)C)NC(=O)[C@H](CC(C)C)NC(=O)OCc1ccccc1 (Cbz-Leu-Leu-Leu-aldehyde),Potency,[2],active: 2.34 µM
same,Potency,[1],active: 2.08 µM
same,Potency,[7],active: 0.469 µM
same,Potency,[9],active: 0.59 µM
same,Potency,[10],active: 2.35 µM
same,Potency,[12],active: 0.118 µM
same,Potency,[13],active: 1.18 µM
Cc1nc([C@](C)(O)CO)sc1-c1cnc(N)c(O[C@H](C)c2cc(F)ccc2-n2nccn2)c1,Potency,[1],inactive
O=c1cc(CO)occ1O,Potency,[16],inactive
CC[C@H](c1ccc(O)cc1)[C@@H](CC)c1ccc(O)cc1,Potency,[16],inactive
same,Potency,[2],"inconclusive: 29.7 µM [cytotoxic, single point]"
C/C=C/c1ccc(O)c(OC)c1,Potency,[16],inactive
same,Potency,DIV14,"inconclusive: 21.3 µM [inhibitor, single point]"
same,Potency,DIV30,"inconclusive: 6.01 µM [inhibitor, partial curve]"
CO[C@]12C[C@@H](COC(=O)c3cncc(Br)c3)CN(C)[C@@H]1Cc1cn(C)c3cccc2c13,Potency,CP268,"inconclusive: 16.9 µM [inhibitor, single point]"
same,Potency,DIV14,"inconclusive: 19 µM [inhibitor, single point]"
same,Potency,DIV30,"inconclusive: 13.5 µM [inhibitor, single point]"
same,Potency,PC26,"inconclusive: 15.1 µM [inhibitor, single point]"
O=C1c2ccccc2C(=O)C1c1ccc(Br)cc1,Potency,[16],"inconclusive: 32.2 µM [inhibitor, partial curve]"
same,Potency,DIV14,"inconclusive: 16.9 µM [inhibitor, single point]"
same,Potency,PC26,"inconclusive: 19 µM [inhibitor, single point]"
CCN(CC)CCOC(=O)C(c1ccccc1)C1CCCCC1 (configuration not stated),Potency,CP268,"inconclusive: 0.301 µM [inhibitor, full curve, poor fit]"
same,Potency,PC26,"inconclusive: 15.1 µM [inhibitor, single point]"
CCCCCCCCCCCCCCCCCCCCCCO,Potency,[1],inactive
same,Potency,[4],"inconclusive: 0.418 µM [cytotoxic, full curve, poor fit]"
same,Potency,[5],"inconclusive: 0.332 µM [rising, full curve, poor fit]"
same,Potency,[6],inactive
same,Potency,[7],"inconclusive: 0.0015 µM [rising, full curve, poor fit]"
same,Potency,[8],"inconclusive: 14.8 µM [rising, partial curve, poor fit]"
same,Potency,[9],"inconclusive: 5.26 µM [rising, full curve, poor fit]"
same,Potency,[10],"inconclusive: 0.0235 µM [rising, full curve]"
same,Potency,[11],"inconclusive: 20.9 µM [rising, partial curve, poor fit]"
same,Potency,[12],inactive
same,Potency,[13],"inconclusive: 0.235 µM [rising, full curve, poor fit]"
same,Potency,[14],inactive
CC(=O)Nc1ccc(S(=O)(=O)Nc2ccc([N+](=O)[O-])cc2)cc1,Potency,CP268,inactive
same,Potency,DIV30,"inconclusive: 19 µM [inhibitor, single point]"
CC(=O)N[C@@H](CS)C(=O)O,Potency,[2],inactive
same,Potency,PC26,inactive
